In PubChem BioAssay AID1030 (National Center for Advancing Translational Sciences (NCATS), 2008):
Out of some 220,000 compounds screened, about 16,000 (7.3%) were called active. This list was built around the results that the source calls inconclusive (neither active nor inactive); the mix of calls is not that of the screen. Calls come from the whole dose curve; as a rule, active = well fitted inhibition curve with a large enough effect (not every such curve was filed as active); inconclusive = small, poorly fitted or top-dose-only effect, or another doubt; inactive = no such curve, though single readings can be large or run the other way. Potencies beside an inconclusive call are fits to weak or partial responses and may not hold up.

Molecular target: Aldehyde dehydrogenase 1A1 (Homo sapiens) (UniProt P00352)
Sequence of UniProt P00352 (P00352 whole entry, looked up): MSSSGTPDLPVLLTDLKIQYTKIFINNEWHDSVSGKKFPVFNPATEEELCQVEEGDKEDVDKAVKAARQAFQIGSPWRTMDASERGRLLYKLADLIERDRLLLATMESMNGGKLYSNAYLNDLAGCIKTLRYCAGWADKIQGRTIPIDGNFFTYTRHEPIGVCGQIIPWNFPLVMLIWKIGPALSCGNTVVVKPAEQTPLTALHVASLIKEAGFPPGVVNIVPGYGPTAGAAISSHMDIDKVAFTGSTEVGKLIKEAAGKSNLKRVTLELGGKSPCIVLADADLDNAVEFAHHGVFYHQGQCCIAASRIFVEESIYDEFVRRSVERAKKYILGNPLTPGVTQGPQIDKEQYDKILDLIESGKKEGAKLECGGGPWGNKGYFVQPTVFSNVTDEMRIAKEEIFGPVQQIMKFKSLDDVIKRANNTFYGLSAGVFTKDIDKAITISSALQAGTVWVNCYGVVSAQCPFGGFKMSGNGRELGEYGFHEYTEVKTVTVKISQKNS
Assay: qHTS Assay for Inhibitors of Aldehyde Dehydrogenase 1 (ALDH1A1);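 for activity, negative = inhibition: plate controls were no enzyme wells and a reference inhibitor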
Settings: Purified ALDH1A1, NADH fluorescence, propionaldehyde substrate; series mostly up to 75.3 µM; activity, negative = inhibition: at the top concentration
Potency is the fitted concentration of half-maximal effect; tags give direction and shape of the fitted curve.

Potency, inactive:
C/C(CCN1CCCCc2nc(C)c(C)cc21)=N\O[C@@H](C)CN1CCCCc2nc(C)c(C)cc21

Potency, active:
Nc1ccccc1Sc1nc2ccccc2[nH]1 12.6 µM
Cc1cc(C(=O)CN2C(=O)NC(CC(C)C)C2=O)c(C)n1-c1ccccc1F (centres undefined) 6.31 µM
Cc1ccc(C)c2[nH]c(=O)c(CN(Cc3cccs3)C(=S)NCc3ccco3)cc12 25.1 µM
COC(=O)CNC(=O)c1ccc2c(c1)S(=O)(=O)c1ccccc1C2=O 11.2 µM
O=C(NCCCNc1ccc([N+](=O)[O-])cc1Cl)c1ccccc1F 15.8 µM
COc1cccc(-n2nnc3c(=O)n(CC(=O)N4CCC(Cc5ccccc5)CC4)cnc32)c1 2 µM
N#Cc1ccccc1Sc1ccccc1C(=O)OCC(=O)N1CCN(C(=O)c2ccco2)CC1 14.1 µM
CO/N=C/NC(=O)c1c(OC)ccnc1Oc1ccccc1 6.31 µM
Cc1nn(Cc2ccccc2)c2c1C(c1cccnc1)C(C#N)=C(N)O2 (centres undefined) 7.94 µM
COc1ccc(/C=C(\C#N)C(=O)Nc2cc(S(=O)(=O)N3CCOCC3)ccc2N2CCCC2)cc1 10 µM
CCOC(=O)CNS(=O)(=O)c1cc(-c2n[nH]c(=O)c3ccccc23)ccc1C 14.1 µM
COc1cc(/C=N/Nc2ccc(C)cc2)cc(Br)c1O 25.1 µM
CCN(CC)c1ccc(/C=N/n2c(C)cc(C)cc2=O)cc1 7.94 µM

Potency, inconclusive:
CCOC(=O)N1CCN(C(=O)c2cccn3c(=O)c4cc(Cl)ccc4nc23)CC1 22.4 µM [inhibitor, single point]
Cn1cnnc1SCc1ccc(-c2ccc(Br)cc2)o1 39.8 µM [inhibitor, single point]
C#CCOc1ccc2c(C)cc(=O)oc2c1 28.2 µM [inhibitor, partial curve]
O=C(NCc1ccccc1)C1=C[C@@H](c2csc3ccccc23)C[C@@H](OCCCCO)O1 39.8 µM [inhibitor, single point]
CC1CCN(C(=O)CSc2ccc(-c3ccccc3)nn2)CC1 39.8 µM [inhibitor, single point]
Cc1csc(NC(=O)CSc2nnc(-c3ccoc3C)o2)n1 44.7 µM [inhibitor, single point]
CCCCNC(=O)CC1N=C2c3ccccc3N=C(SCC(=O)Nc3ccccc3C)N2C1=O (centres undefined) 39.8 µM [inhibitor, single point]
C=CCn1c(=O)n(CCOC)c(=O)c2sc3ccccc3c21 25.1 µM [inhibitor, partial curve]
C/C(N)=N\S(=O)(=O)c1ccc(Cl)cc1 25.1 µM [inhibitor, single point]
CNC(=S)Nc1ccc(C(N)=O)cc1 39.8 µM [inhibitor, single point]
CC(C)(C)c1ccc(-c2csc(NC(=O)CN3C(=O)NC4(CCCCC4)C3=O)n2)cc1 39.8 µM [inhibitor, single point]
Cc1cc(C)c2c(N)c(C(=O)Nc3ncc(C)s3)sc2n1 28.2 µM [inhibitor, partial curve]
CN(C)c1ncc2nc(-c3cccs3)c(=O)n(C3CC3)c2n1 12.6 µM [inhibitor, partial curve]
c1cc2c(cn1)cnc1cscc12 37.7 µM [inhibitor, single point]
Cc1cc2nn(-c3cccc4ccccc34)nc2cc1NC(=O)c1cccs1 22.4 µM [inhibitor, partial curve]
O=[N+]([O-])c1nn(-c2ccc(Cl)cc2)n(O)c1=NCc1ccncc1 39.8 µM [inhibitor, single point]
C=CCN(c1ccccc1)S(=O)(=O)c1cccc(C(=O)Nc2nnc(SCC)s2)c1 22.4 µM [inhibitor, single point]
COc1cc(-c2nnc(SCC(=O)c3ccccc3)o2)cc(OC)c1OC 39.8 µM [inhibitor, single point]
O=C(NC1CCCC1)C(c1ccncc1)N(CCCN1CCOCC1)C(=O)c1ccc(-c2ccccc2)[nH]1 (centres undefined) 39.8 µM [inhibitor, single point]
O=C(Nc1ccc2c(c1)OCCO2)C1CCN(C(=O)c2ccc(Br)cc2)CC1 39.8 µM [inhibitor, single point]
CC1CCCC(C)N1/N=C/c1ccc(C#N)cc1 (centres undefined) 22.4 µM [inhibitor, single point]
Cc1ccc(C=Nc2ccccc2C(=O)Nc2ccccc2)cc1 28.2 µM [inhibitor, partial curve]
CCCCn1nc2cc(C(=O)N[C@H](C)C3CCCCC3)ccc2c1OCC 20 µM [inhibitor, partial curve]
CC(C)[C@H](NC(N)=O)C(=O)Nc1cccc(S(=O)(=O)N2CCOCC2)c1 37.7 µM [inhibitor, single point]
C=CCn1c(-c2ccc(=O)n(Cc3ccccc3)c2)n[nH]c1=S 44.7 µM [inhibitor, single point]
CC1=CC(C)(C)N(C(=O)CCl)c2cc(C)ccc21 35.5 µM [inhibitor, single point]
O=C(Nc1ccc(-c2nc3cccnc3s2)cc1)c1ccco1 31.6 µM [inhibitor, partial curve]
COc1ccc(-c2nc(C#N)c(NCc3ccc(C)cc3)o2)cc1OC 28.2 µM [inhibitor, partial curve]
Cc1ccc(NC(=O)COC(=O)CNC(=O)c2cccc([N+](=O)[O-])c2)cc1S(=O)(=O)N1CCCCCC1 23.8 µM [inhibitor, single point]
Cc1cccc(-n2c(-c3ccncc3)n[nH]c2=S)c1C 22.4 µM [inhibitor, partial curve]
O=C(CN1C(=O)COc2ccccc21)NCc1ccc(C(=O)O)cc1 8.91 µM [inhibitor, single point]
CCc1ccc2oc(-c3cc(N)cc(C)c3O)nc2c1 6.31 µM [inhibitor, partial curve]
COc1cc(C(=O)Nc2nnc(SC)s2)c([N+](=O)[O-])cc1OC 39.8 µM [inhibitor, single point]
CCC(C)N(C(=O)COC(=O)CCc1c[nH]c2ccccc12)C1CCS(=O)(=O)C1 (centres undefined) 39.8 µM [inhibitor, single point]
CCN(CC)S(=O)(=O)c1ccc(C)c(NC(=O)Cn2c(=O)cnc3ccccc32)c1 14.1 µM [inhibitor, partial curve]
O=C(/C=C/c1ccc(Cl)cc1Cl)N1CCN(c2ccc([N+](=O)[O-])c(N3CCOCC3)c2)CC1 2.82 µM [inhibitor, partial curve]
Cc1nc2nc(-c3ccccc3)cn2nc1C 28.2 µM [inhibitor, partial curve]

activity, negative = inhibition, inactive:
Cc1nnc(SCC(=O)N2CCN(c3ccccc3)CC2)n1-c1ccccc1 -10.5%
CCOC(=O)C1=C(CC)OC(N)=C(C#N)C1c1ccc(F)cc1F (centres undefined) 10.9%
Cc1c(Nc2cc(Cl)c3nonc3c2[N+](=O)[O-])c(=O)n(-c2ccccc2)n1C -1.38%
CC(C)(C)C(=O)Nc1ccc(C(=O)N/N=C/c2ccccc2OC(=O)c2ccc(Cl)cc2)cc1 0.662%
CCOC(=O)C(C(C)=O)c1c(Br)c(O)c(O)c2c(C(=O)c3ccc(C)cc3)coc12 (centres undefined) -3.39%
CC(c1nccs1)N(C)C(=O)CCc1nnc(Cc2c[nH]c3ccccc23)o1 (centres undefined) 20.7%
COc1ccc([N+](=O)[O-])cc1CSc1nnc(NC(C)=O)s1 9.46%
Cc1nc(-c2cccnc2)sc1C(=O)Nc1cccc(C(F)(F)F)c1 0.255%
Cc1ccc(NC(=O)COC(=O)Cn2cnc3c2c(=O)n(C)c(=O)n3C)cc1Cl 7.78%
O=C(CSc1nnc(-c2ccco2)o1)NC1CCCCC1 12.3%
CCC(=O)C(C(=O)OC)[C@H](CCc1ccccc1)NC(=O)OC (some centres undefined) 3.05%
CS(=O)(=O)Nc1cccc(-c2cncnc2NCc2ccccc2)c1 -1.47%
COc1ccc2cc(-c3[nH]ncc3CN3C[C@@H]4CCC[C@H]3C4)ccc2c1 -2.03%
CC(=O)Oc1ccc(C2(C)CC(C)(C)NC(=S)N2C)c(OC(C)=O)c1 (centres undefined) 0.71%
Cc1ccc([N+](=O)[O-])cc1NC(=O)C(Sc1ccccc1)c1ccccc1 (centres undefined) -12.9%
COc1ccc(Cl)cc1NC(=O)Cc1c(F)cccc1Cl 2.15%
C[C@H](CCC(=O)O)[C@H]1CC[C@@H]2[C@H]3CC[C@H]4C[C@@H](O)CC[C@@]4(C)[C@H]3CC[C@]21C 8.06% [at 20.9 µM]
O=C1CC(c2ccccc2)CC(O)=C1C=NCCN1CCOCC1 (centres undefined) -8.85%
COc1cccc(CC(NC(C)=O)C(=O)NC2CCN(C(=O)C3CC3)CC2)c1OC (centres undefined) 2.24%
Oc1ccc(/C=N/NC(=S)NCC2CCCO2)cc1 (centres undefined) -3.9%
Cc1c(NC(=O)OCCNC(=O)COc2c(Cl)cccc2Cl)sc(=S)n1C 0.318%
Cc1nn(-c2ccccc2)c(N2CCCC2)c1/C=N/NC(=O)c1cc(-c2cccs2)nc2ccccc12 7.14%
O=C(/C=C/c1ccccc1)OCCCCN=C1NS(=O)(=O)c2ccccc21 -1.69%
